Results on 4 compounds are retold here after patent publication US4200631A, “Treating mammalian subject sensitive to indomethacin ulcerogenisis” (priority 1978, dated 1980).

Molecules are shown by their SMILES. Like-named read-outs stand apart in the source and are kept apart here.

Series [1] in a line: Gastrointestinal blood loss in healthy subjects, Cr51 labeled erythrocytes (Table 13). The note with it: 3 days.
Series [2] is classed as in vivo, human. The note with it: total daily dose 75 mg p.o., 4 weeks.

On to `CC(=O)Oc1ccccc1C(=O)O` [Aspirin, acetylsalicylic acid], for which the “Mean daily blood loss (ml) ± S.D.” value in series [1] (total daily dose 3000 mg p.o.) was 1.50 ± 0.5 mL.
As for `COc1ccc2c(c1)c(CC(=O)O)c(C)n2C(=O)c1ccc(Cl)cc1` [Indomethacin], the “Mean daily blood loss (ml) ± S.D.” value in series [2] was found to be 3.30 ± 0.79 mL; in series [1] (total daily dose 150 mg p.o.) it was 2.75 ± 1.3 mL.
As to `CCCCC1C(=O)N(c2ccccc2)N(c2ccccc2)C1=O` [Phenylbutazone, 4-butyl-1,2-diphenyl-pyrazolidine-3,5-dione], in series [1] (total daily dose 600 mg p.o.), the “Mean daily blood loss (ml) ± S.D.” value was determined as 1.45 ± 0.7 mL.
For `O=C([O-])c1ccccc1O.[Na+]` [Sodium salicylate], the “Mean daily blood loss (ml) ± S.D.” value in series [1] (total daily dose 3000 mg p.o.) is 1.16 ± 1.8 mL.
